The labels stand for the following.
T1: RBFOX1 RRM RbFoxmut (Fox-RRM*) (Homo sapiens, UniProt Q9NWB1 109-208, R118D;E147R;N151S;E152T)
T1 sequence: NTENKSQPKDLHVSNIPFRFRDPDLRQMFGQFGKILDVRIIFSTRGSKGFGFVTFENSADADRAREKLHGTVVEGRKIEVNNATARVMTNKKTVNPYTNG

B1: CUUAUGG (DNA:RNA)
RNA: GGGAGACCGGAAUUCAGAUUGUCCCUUAUGGUUAAAUCCCGUCGUAGCCACCA
DNA 1: CAATCTGAATTCCGGTCTCCC
DNA 2: TGGTGGCTACGACGGGATT
B2: GGUGCUC (DNA:RNA)
RNA: B1 RNA with C25G, U26G, A28G, U29C, G30U, G31C
DNA 1: CAATCTGAATTCCGGTCTCCC
DNA 2: TGGTGGCTACGACGGGATT
B3: CUGUGUU (DNA:RNA)
RNA: B1 RNA with U27G, A28U, U29G, G30U, G31U
DNA 1: CAATCTGAATTCCGGTCTCCC
DNA 2: TGGTGGCTACGACGGGATT
B4: CAGGGAC (DNA:RNA)
RNA: B1 RNA with U26A, U27G, A28G, U29G, G30A, G31C
DNA 1: CAATCTGAATTCCGGTCTCCC
DNA 2: TGGTGGCTACGACGGGATT
B5: CGCCAAC (DNA:RNA)
RNA: B1 RNA with U26G, U27C, A28C, U29A, G30A, G31C
DNA 1: CAATCTGAATTCCGGTCTCCC
DNA 2: TGGTGGCTACGACGGGATT
B6: UGUGAAG (DNA:RNA)
RNA: B1 RNA with C25U, U26G, A28G, U29A, G30A
DNA 1: CAATCTGAATTCCGGTCTCCC
DNA 2: TGGTGGCTACGACGGGATT
B7: CUGUUGA (DNA:RNA)
RNA: B1 RNA with U27G, A28U, G31A
DNA 1: CAATCTGAATTCCGGTCTCCC
DNA 2: TGGTGGCTACGACGGGATT
B8: GUACAGA (DNA:RNA)
RNA: B1 RNA with C25G, U27A, A28C, U29A, G31A
DNA 1: CAATCTGAATTCCGGTCTCCC
DNA 2: TGGTGGCTACGACGGGATT
B9: CUUUACG (DNA:RNA)
RNA: B1 RNA with A28U, U29A, G30C
DNA 1: CAATCTGAATTCCGGTCTCCC
DNA 2: TGGTGGCTACGACGGGATT

Changes are numbered by the printed parent chain; changes in the protein carry UniProt numbers. This is one part of the list.

The target in this test is T1, RBFOX1 RRM RbFoxmut (Fox-RRM*). The experiment in a line: EMSA; HiTS-Eq, 1 nM pool, 10 min; buffer printed only for the single-RNA assays: 10 mM Tris pH 7.5, 150 mM NaCl, 3.4 mM EDTA, 0.001% NP-40, 30 C. The settings on record: tags: His6 N-terminal (pET28a); label: 5' 32P. Put shortly:
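Purified RbFox RRM (wild type or mutant) was equilibrated for 10 min in 50 µL with 1 nM of a 5′-radiolabelled pool of RNA with 7 randomized nucleotides, its flanks annealed to DNA oligonucleotides, across increasing protein concentrations. Free RNA was separated by 8% native PAGE, excised, reverse-transcribed, PCR-barcoded and sequenced on an Illumina HiSeq 2500. Relative association constants came from read-count changes of each variant against the control reaction, normalised to the cognate motif.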
On the technique in general: Mobility shift assays separate free from complexed probe on a gel.
B1: the binding signal is 0.0899 KA relative to UGCAUGU.

As for B2, the binding signal was 0.0985 KA relative to UGCAUGU.

Consider B3, for which the binding signal was 0.14 KA relative to UGCAUGU.

Consider B4, for which the binding signal is 0.0782 KA relative to UGCAUGU.

In the case of B5, the binding signal was 0.0503 KA relative to UGCAUGU.

On to B6, for which the binding signal was 0.138 KA relative to UGCAUGU.

With B7, the binding signal was 0.104 KA relative to UGCAUGU.

Regarding B8, the binding signal is 0.0876 KA relative to UGCAUGU.

As for B9, the binding signal is 0.123 KA relative to UGCAUGU.

The values are drawn from publication PMC9911399, “Two distinct binding modes provide the RNA-binding protein RbFox with extraordinary sequence specificity”.
